According to patent US20190365891A1 (SCHOLAR ROCK, published 2019):

Key:
CD64 (FcgRI) = CD64 (FcgRI) (UniProt P12314 16-292, limits assumed); assay: ELISA, relative to the IgG1 variant of Ab1
complement component C1q = target: T1, complement component C1q (UniProt P02745; P02746; P02747); assay: ELISA, relative to the IgG1 variant of Ab1
T1 construct: the three subunit chains are from general knowledge

Relative CD64 Binding @ EC50 (%) (CD64 (FcgRI)): 5% | Relative C1q Binding @ EC50 (%) (complement component C1q): 8%
B1: Ab2, Ab1 with germline framework residues, IgG4 (S228P), lambda (antibody)
heavy: QVQLVESGGGVVQPGRSLRLSCAASGFTFSSYGMHWVRQAPGKGLEWVAVISYDGSNKYYADSVKGRFTISRDNSKNTLYLQMNSLRAEDTAVYYCARDLLVRFLEWSHYYGMDVWGQGTTVTVSSASTKGPSVFPLAPCSRSTSESTAALGCLVKDYFPEPVTVSWNSGALTSGVHTFPAVLQSSGLYSLSSVVTVPSSSLGTKTYTCNVDHKPSNTKVDKRV[no letters for human IgG4 Fc with S228P (EU numbers)]
light: QSVLTQPPSASGTPGQRVTISCSGSSSNIGSNTVHWYQQLPGTAPKLLIYSDNQRPSGVPDRFSGSKSGTSASLAISGLQSEDEADYYCAAWDDSLNGVFGGGTKLTVLGQPKAAPSVTLFPPSSEELQANKATLVCLISDFYPGAVTVAWKADSSPVKAGVETTTPSKQSNNKYAASSYLSLTPEQWKSHRSYSCQVTHEGSTVEKTVAPTECS
notes: also called Ab2 germline
